# Some of the results follow.
# B1: HHA (Hippeastrum hybrid) (protein)
# chain: MQQDCNLVLYDVDKPIWASNTGGLARDCHLNMQSDGNLVVYAPRNQVIWASNTQGENGNYVCILQKDRNVVIYGTARWATGTNIHGAGIVGVPGSAPQNTTAEMIKLVRKYLITK
# Legend:
# Assay in all cases: glycan array binding signal (z-score within array); higher = stronger binding
# Settings in all cases: glycan notation: IUPAC condensed, linker removed
# [1] = target: Neu5Ac(a2-6)Gal(b1-4)GlcNAc(b1-2)Man(a1-3)Man(b1-4)GlcNAc(b1-4)GlcNAc
# In short: (§1)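 From the Consortium for Functional Glycomics database, 3228 arrays were curated, keeping only those whose protein sequence was available. Binding is given as a within-array Z-score averaged across arrays sharing a protein sequence and across linkers. Negative Z-scores can be read as non-binding.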
# [2] = target: Neu5Ac(a2-6)Gal(b1-4)GlcNAc(b1-2)Man(a1-3)[Gal(b1-4)GlcNAc(b1-2)Man(a1-6)]Man(b1-4)GlcNAc(b1-4)GlcNAc
# In short: as §1
# [3] = target: Neu5Ac(a2-6)Gal(b1-4)GlcNAc(b1-2)Man(a1-3)[GlcNAc(b1-2)Man(a1-6)]Man(b1-4)GlcNAc(b1-4)GlcNAc
# In short: as §1
# [4] = target: Neu5Ac(a2-6)Gal(b1-4)GlcNAc(b1-2)Man(a1-3)[GlcNAc(b1-4)][Neu5Ac(a2-6)Gal(b1-4)GlcNAc(b1-2)Man(a1-6)]Man(b1-4)GlcNAc(b1-4)GlcNAc
# In short: as §1
# [5] = target: Neu5Ac(a2-6)Gal(b1-4)GlcNAc(b1-2)Man(a1-3)[Man(a1-6)]Man(b1-4)GlcNAc(b1-4)GlcNAc
# In short: as §1
# [6] = target: Neu5Ac(a2-6)Gal(b1-4)GlcNAc(b1-2)Man(a1-3)[Neu5Ac(a2-3)Gal(b1-4)GlcNAc(b1-2)Man(a1-6)]Man(b1-4)GlcNAc(b1-4)GlcNAc
# In short: as §1
# [7] = target: Neu5Ac(a2-6)Gal(b1-4)GlcNAc(b1-2)Man(a1-3)[Neu5Ac(a2-6)Gal(b1-4)GlcNAc(b1-2)Man(a1-6)]Man(b1-4)GlcNAc(b1-4)GlcNAc
# In short: as §1
# [8] = target: Neu5Ac(a2-6)Gal(b1-4)GlcNAc(b1-2)Man(a1-3)[Neu5Ac(a2-6)Gal(b1-4)GlcNAc(b1-2)Man(a1-6)]Man(b1-4)GlcNAc(b1-4)[Fuc(a1-6)]GlcNAc
# In short: as §1
# [9] = target: Neu5Ac(a2-6)Gal(b1-4)GlcNAc(b1-2)Man(a1-6)Man(b1-4)GlcNAc(b1-4)GlcNAc
# In short: as §1
# [10] = target: Neu5Ac(a2-6)Gal(b1-4)GlcNAc(b1-2)Man(a1-6)[Gal(b1-4)GlcNAc(b1-2)Man(a1-3)]Man(b1-4)GlcNAc(b1-4)GlcNAc
# In short: as §1
# [11] = target: Neu5Ac(a2-6)Gal(b1-4)GlcNAc(b1-2)Man(a1-6)[GlcNAc(b1-2)Man(a1-3)]Man(b1-4)GlcNAc(b1-4)GlcNAc
# In short: as §1
# [12] = target: Neu5Ac(a2-6)Gal(b1-4)GlcNAc(b1-2)Man(a1-6)[Man(a1-3)]Man(b1-4)GlcNAc(b1-4)GlcNAc
# In short: as §1
# [13] = target: Neu5Ac(a2-6)Gal(b1-4)GlcNAc(b1-2)[Neu5Ac(a2-6)Gal(b1-4)GlcNAc(b1-4)]Man(a1-3)[GlcNAc(b1-4)][Neu5Ac(a2-6)Gal(b1-4)GlcNAc(b1-2)[Neu5Ac(a2-6)Gal(b1-4)GlcNAc(b1-6)]Man(a1-6)]Man(b1-4)GlcNAc(b1-4)GlcNAc
# In short: as §1
# [14] = target: Neu5Ac(a2-6)Gal(b1-4)GlcNAc(b1-2)[Neu5Ac(a2-6)Gal(b1-4)GlcNAc(b1-4)]Man(a1-3)[GlcNAc(b1-4)][Neu5Ac(a2-6)Gal(b1-4)GlcNAc(b1-4)Man(a1-6)]Man(b1-4)GlcNAc(b1-4)GlcNAc
# In short: as §1
# [15] = target: Neu5Ac(a2-6)Gal(b1-4)GlcNAc(b1-2)[Neu5Ac(a2-6)Gal(b1-4)GlcNAc(b1-6)]Man(a1-6)[Neu5Ac(a2-6)Gal(b1-4)GlcNAc(b1-2)Man(a1-3)][GlcNAc(b1-4)]Man(b1-4)GlcNAc(b1-4)GlcNAc
# In short: as §1
# [16] = target: Neu5Ac(a2-6)Gal(b1-4)GlcNAc(b1-3)Gal(b1-3)GlcNAc
# In short: as §1
# [17] = target: Neu5Ac(a2-6)Gal(b1-4)GlcNAc(b1-3)Gal(b1-4)GlcNAc
# In short: as §1
# [18] = target: Neu5Ac(a2-6)Gal(b1-4)GlcNAc(b1-3)Gal(b1-4)GlcNAc(b1-2)Man(a1-3)[Neu5Ac(a2-6)Gal(b1-4)GlcNAc(b1-3)Gal(b1-4)GlcNAc(b1-2)Man(a1-6)]GalNAc
# In short: as §1
# [19] = target: Neu5Ac(a2-6)Gal(b1-4)GlcNAc(b1-3)Gal(b1-4)GlcNAc(b1-3)Gal(b1-4)GlcNAc
# In short: as §1
# [20] = target: Neu5Ac(a2-6)Gal(b1-4)GlcNAc(b1-3)Gal(b1-4)GlcNAc(b1-3)Gal(b1-4)GlcNAc(b1-2)Man(a1-3)[Neu5Ac(a2-6)Gal(b1-4)GlcNAc(b1-3)Gal(b1-4)GlcNAc(b1-3)Gal(b1-4)GlcNAc(b1-2)Man(a1-6)]GalNAc
# In short: as §1
# [21] = target: Neu5Ac(a2-6)Gal(b1-4)GlcNAc(b1-3)Gal(b1-4)GlcNAc(b1-3)GalNAc
# In short: as §1
# [22] = target: Neu5Ac(a2-6)Gal(b1-4)GlcNAc(b1-3)Gal(b1-4)GlcNAc(b1-3)[Neu5Ac(a2-6)Gal(b1-4)GlcNAc(b1-3)Gal(b1-4)GlcNAc(b1-6)]GalNAc
# In short: as §1
# [23] = target: Neu5Ac(a2-6)Gal(b1-4)GlcNAc(b1-3)Gal(b1-4)GlcNAc(b1-6)[Gal(b1-3)]GalNAc
# In short: as §1
# [24] = target: Neu5Ac(a2-6)Gal(b1-4)GlcNAc(b1-3)Gal(b1-4)[Fuc(a1-3)]GlcNAc(b1-3)Gal(b1-4)[Fuc(a1-3)]GlcNAc
# In short: as §1
# [25] = target: Neu5Ac(a2-6)Gal(b1-4)GlcNAc(b1-3)GalNAc
# In short: as §1
# [26] = target: Neu5Ac(a2-6)Gal(b1-4)GlcNAc(b1-3)[Neu5Ac(a2-6)Gal(b1-4)GlcNAc(b1-6)]GalNAc
# In short: as §1
# [27] = target: Neu5Ac(a2-6)Gal(b1-4)GlcNAc(b1-6)GalNAc
# In short: as §1
# [28] = target: Neu5Ac(a2-6)Gal(b1-4)GlcNAc(b1-6)[Gal(b1-3)GlcNAc(b1-3)]Gal(b1-4)Glc
# In short: as §1
# [29] = target: Neu5Ac(a2-6)Gal(b1-4)GlcNAc(b1-6)[Gal(b1-3)]GalNAc
# In short: as §1
# [30] = target: Neu5Ac(a2-6)Gal(b1-4)GlcNAc6S
# In short: as §1
# Neu5Ac(a2-6)GalNAc = target: Neu5Ac(a2-6)GalNAc
# In short: as §1
# [31] = target: Neu5Ac(a2-6)GalNAc(b1-4)GlcNAc
# In short: as §1
# [32] = target: Neu5Ac(a2-6)GalNAc(b1-4)GlcNAc6S
# In short: as §1
binder,measurement,setting,value
B1,glycan array binding signal (z-score),[1],-0.202
same,glycan array binding signal (z-score),[2],-0.207
same,glycan array binding signal (z-score),[3],-0.219
same,glycan array binding signal (z-score),[4],-0.221
same,glycan array binding signal (z-score),[5],0.002
same,glycan array binding signal (z-score),[6],-0.213
same,glycan array binding signal (z-score),[7],-0.22
same,glycan array binding signal (z-score),[8],-0.202
same,glycan array binding signal (z-score),[9],-0.189
same,glycan array binding signal (z-score),[10],0.158
same,glycan array binding signal (z-score),[11],-0.135
same,glycan array binding signal (z-score),[12],3.55
same,glycan array binding signal (z-score),[13],-0.208
same,glycan array binding signal (z-score),[14],-0.207
same,glycan array binding signal (z-score),[15],-0.215
same,glycan array binding signal (z-score),[16],-0.209
same,glycan array binding signal (z-score),[17],-0.211
same,glycan array binding signal (z-score),[18],-0.165
same,glycan array binding signal (z-score),[19],-0.208
same,glycan array binding signal (z-score),[20],-0.107
same,glycan array binding signal (z-score),[21],-0.005
same,glycan array binding signal (z-score),[22],-0.097
same,glycan array binding signal (z-score),[23],-0.191
same,glycan array binding signal (z-score),[24],-0.137
same,glycan array binding signal (z-score),[25],-0.145
same,glycan array binding signal (z-score),[26],-0.214
same,glycan array binding signal (z-score),[27],-0.188
same,glycan array binding signal (z-score),[28],-0.21
same,glycan array binding signal (z-score),[29],-0.201
same,glycan array binding signal (z-score),[30],-0.217
same,glycan array binding signal (z-score),Neu5Ac(a2-6)GalNAc,-0.22
same,glycan array binding signal (z-score),[31],-0.222
same,glycan array binding signal (z-score),[32],-0.198

# — the supplement of paper PMC8728848
